Test results taken from the supplement of paper PMC8748497.
Some of the results follow.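 Rule for the calls: active = GRHL reporter fold change of at least 2 over DMSO at 10 µM; inactive = below 2-fold.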 Repeats are few or missing, and single values can be far off.

test system: HEK293 GRHL-luciferase reporter; assay: GRHL luciferase reporter activity, fold change over DMSO control; higher = stronger GRHL reporter activation; details: 10 µM; 24 h
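Note: stable HEK293 line carrying repeated GRHL consensus sites upstream of a minimal promoter driving luciferase, luminescence read 24 h post-treatment, normalized to 0.5% DMSO vehicle wells.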

SMILES	GRHL luciferase reporter activity
C[C@@H]1CC[C@H]2[C@@H](C)C(=O)O[C@@H]3O[C@@]4(C)CC[C@@H]1[C@]32OO4	inactive: 1.64
N#CN=C(N)N	inactive: 1.09
COc1cc(OC)c2c(c1)O[C@H](c1ccc(OC)c(OC)c1)[C@@H](O)C2	inactive: 1.47
S=C=NCc1ccccc1	active: 2.65
C=C1C[C@@H]2[C@H](CC[C@]3(C)C(=O)CC[C@@H]23)[C@@]2(C)C=CC(=O)C=C12	inactive: 1.41
COP(=S)(OC)Oc1ccc(SC)c(C)c1	inactive: 1.41
COc1cc2c(cc1OC)[C@@]13CCN4CC5=CCO[C@H]6CC(=O)N2[C@H]1[C@H]6[C@H]5C[C@H]43	inactive: 0.975
O=C(O)Cc1cnc[nH]1	inactive: 0.955
Cc1cc(O)ccc1Cl	active: 2.48
CC[C@@H](c1cccc(O)c1)[C@@H](C)CN(C)C	inactive: 0.795
COc1ccc(C=O)cc1	inactive: 0.97
COP(=O)(OC)C(O)C(Cl)(Cl)Cl (stereo not drawn)	active: 4.65
CCCCCCCCC(=O)NCc1ccc(O)c(OC)c1	inactive: 1.24
Cn1c(CCCC(=O)O)nc2cc(N(CCCl)CCCl)ccc21	inactive: 0.9
Cc1ccc(O)cc1.Cc1cccc(O)c1.Cc1ccccc1O	inactive: 1.27
CCOC(=O)CC(SP(=S)(OC)OC)C(=O)OCC (stereo not drawn)	inactive: 0.806
O=C(CCCN1CCC2(CC1)C(=O)NCN2c1ccccc1)c1ccc(F)cc1	inactive: 1.21
C[C@]12CC[C@@H]3c4ccc(OC(=O)N(CCCl)CCCl)cc4CC[C@H]3[C@@H]1CC[C@@H]2O	active: 2.87
NCCCNCCSP(=O)(O)O	inactive: 1.02

SMILES	GRHL luciferase reporter activity
O=C(NC(=O)c1c(F)cccc1F)Nc1cc(Cl)c(OC(F)(F)C(F)C(F)(F)F)cc1Cl (stereo not drawn)	inactive: 1.46
C=C[C@H]1CN2CC[C@H]1C[C@H]2[C@H](OC(=O)OCC)c1ccnc2ccc(OC)cc12	inactive: 0.908
CNc1ccccc1C(=O)O	inactive: 0.998
O=c1[nH]c2ccccc2n1C1CCN(CCCC(c2ccc(F)cc2)c2ccc(F)cc2)CC1	inactive: 1.14
CCC1(CC)C(=O)C=CNC1=O	inactive: 1.16
NCCc1c[nH]c2ccc(O)cc12	inactive: 0.985
CC(=O)O[C@H]1CC[C@]2(C=O)[C@H]3CC[C@]4(C)[C@@H](C5=CC(=O)OC5)CC[C@]4(O)[C@@H]3CC[C@]2(O)C1	inactive: -0.000217
CN1C[C@H](CNC(=O)OCc2ccccc2)C[C@@H]2c3cccc4c3c(cn4C)C[C@H]21	inactive: 0.202
NCC(O)c1ccc(O)cc1 (stereo not drawn)	inactive: 1.03
CC1(C)C(=O)C=C[C@]2(C)[C@H]3CC[C@@]4(C)[C@H](c5ccoc5)OC(=O)[C@H]5O[C@]54[C@]3(C)[C@H](O)C[C@@H]12	inactive: 0.515
NC(=O)CN1CCCC1=O	inactive: 0.971
NCC(CC(=O)O)c1ccc(Cl)cc1 (racemic)	inactive: 0.915
CCCN1C[C@H](CSC)C[C@@H]2c3cccc4[nH]cc(c34)C[C@H]21	inactive: 0.744
C[C@@H]1O[C@@H](O[C@H]2CC[C@]3(C=O)[C@H]4CC[C@]5(C)[C@@H](C6=CC(=O)OC6)CC[C@]5(O)[C@@H]4CC[C@]3(O)C2)[C@H](O)[C@H](O)[C@H]1O	inactive: -0.00463
CC(O)CN1CCN(CC(=O)[O-])CCN(CC(=O)[O-])CCN(CC(=O)[O-])CC1.[Gd+3] (stereo not drawn)	active: 5.55
CN(C)C(=O)Oc1cc(OC(=O)N(C)C)cc(C(O)CNC(C)(C)C)c1 (stereo not drawn)	inactive: 1.18
COc1cccc(C=O)c1OC	inactive: 1.39
COP(=S)(OC)Oc1cc(Cl)c(Cl)cc1Cl	inactive: 1.14
c1ccc2c(c1)Nc1ccccc1S2	active: 17.2
